In PMC5986797, “Laminin heparin-binding peptides bind to several growth factors and enhance diabetic wound healing” (Nature Communications, 2018):

What was measured:
Assay in all cases: ELISA; plates coated with 50 nM GF or chemokine in PBS; 10 nM laminin isoform in PBS added; bound laminin detected with anti-LAMC1 or anti-LAMA3 polyclonal antibody; A450 signals greater than 0.1 taken as binding; BSA-coated wells as control
Details in all cases: both partners purified
[1] = biological target: T1, recombinant human laminin-521 (human, UniProt O15230 36-3695; P55268 33-1798; P11047 34-1609)
T1 construct: laminin subunit alpha-5, human; chain told by the isoform's name; laminin subunit beta-2, human; laminin subunit gamma-1, human; also called laminin isoform-521; source: bought: BioLamina (recombinant human, >95% purity); copies: + +

[2] = biological target: T2, recombinant human laminin-511 (human, UniProt O15230 36-3695; P07942 22-1786; P11047 34-1609)
T2 construct: laminin subunit alpha-5, human; chain told by the isoform's name; laminin subunit beta-1, human; laminin subunit gamma-1, human; source: bought: BioLamina (recombinant human, >95% purity); copies: + +

[3] = biological target: T3, recombinant human laminin-211 (human, UniProt P24043 23-3122; P07942 22-1786; P11047 34-1609)
T3 construct: laminin subunit alpha-2, human; chain told by the isoform's name; laminin subunit beta-1, human; laminin subunit gamma-1, human; source: bought: BioLamina (recombinant human, >95% purity); copies: + +

[4] = biological target: T4, recombinant human laminin-111 (human, UniProt P25391 18-3075; P07942 22-1786; P11047 34-1609)
T4 construct: laminin subunit alpha-1, human; chain told by the isoform's name; laminin subunit beta-1, human; laminin subunit gamma-1, human; source: bought: BioLamina (recombinant human, >95% purity); copies: + +

Measured: binding result

B1: C–X–C motif ligand (CXCL)-12γ (ligand)
chain: not shown
notes: C-X-C motif chemokine 12 (SDF-1), gamma form, bought in its mature form; source: bought: R&D systems
binds: [1] | [2] | [3] | [4]
